Laboratory results taken from patent US6540999B1, “Immunomodulatory methods using Lewisx oligosacchardies” (President and Fellows of Harvard College, priority 1996, dated 2003).

System: Human PBMC from B Lymphoma Patients
Assay: Proliferation of human PBMC from B lymphoma patients (3H-thymidine uptake)
Conditions: 3H-thymidine uptake at 90 hours; LPS 20 μg/ml, HSA and conjugates 100 μg/ml

lipopolysaccharide [LPS]
CPM, B-LYMPHOMA-1: 80424 CPM
CPM, B-LYMPHOMA-2: 1084 CPM
CPM, B-LYMPHOMA-3: 3424 CPM
